According to the supplement of paper PMC4604168 (melanoma cell lines):
This is one part of the list. Repeats are few or missing, and single values can be far off.

What was measured:
Assay in all cases: cell count relative to DMSO control; melanoma cells; higher = more viable cells
Details in all cases: library dose: standard library concentration; 72 h
[1] = test system: IST-MEL1
[2] = test system: LOXIMVI
[3] = test system: MEL-HO
[4] = test system: MeWo
[5] = test system: RPMI7951
[6] = test system: RVH-421
[7] = test system: SkMel28
[8] = test system: SkMel2
[9] = test system: SkMel30
[10] = test system: SkMel5
[11] = test system: UACC257
[12] = test system: UACC62
[13] = test system: WM115
[14] = test system: WM1716
[15] = test system: WM1745
[16] = test system: WM3526
[17] = test system: WM3619
[18] = test system: WM451Lu
[19] = test system: LB2518-MEL
[20] = test system: MZ2-MEL
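Also: cells treated in 1,536-well plates, then fixed and DAPI-stained, with nuclei counted from automated high-throughput microscope images.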

Compound | cell count [1] [%] | cell count [2] [%] | cell count [3] [%] | cell count [4] [%] | cell count [5] [%] | cell count [6] [%] | cell count [7] [%] | cell count [8] [%] | cell count [9] [%] | cell count [10] [%] | cell count [11] [%] | cell count [12] [%] | cell count [13] [%] | cell count [14] [%] | cell count [15] [%] | cell count [16] [%] | cell count [17] [%] | cell count [18] [%] | cell count [19] [%] | cell count [20] [%]
c1cc(-c2cnn3cc(-c4ccc(OCCN5CCCCC5)cc4)cnc23)ccn1 [Dorsomorphin] + CCCCCCCCCCCC1=C(O)C(=O)C=C(O)C1=O [Embelin] (first compound 2 µM, partner dose 6 µM) | 66 | 95.4 | 65.3 | 79 | 65.8 | 72.6 | 70.5 | 80.7 | 94.2 | 88.6 | 68.5 | 96.6 | 65.3 | 77.8 | 50.4 | 71.2 | 74.8 | 61.9 | – | –
COC(=O)c1sccc1S(=O)(=O)Nc1ccc(Nc2ccccc2)cc1OC + COc1cc2ncnc(Nc3ccc(Oc4ccccc4)cc3)c2cc1OC [SrcI1] (first compound 5 µM, partner dose 10 µM) | 113 | 72.7 | 82.9 | 71.5 | 63.5 | 123 | 82.4 | 93.6 | 95.1 | 57.7 | 78 | 84.9 | 82.1 | 70.7 | 63.9 | 55.6 | 69.7 | 74.1 | 127 | 55.8
COc1cc2ncnc(Nc3ccc(Oc4ccccc4)cc3)c2cc1OC + O=C1NC(=O)/C(=C/c2ccc(-c3ccc(F)cc3O)o2)S1 [AS252424] (first compound 10 µM, partner dose 5 µM) | 90 | 100 | 73.8 | 80.4 | 61 | 102 | 70.9 | – | 91.1 | 73.8 | 99.6 | 84.6 | 95.6 | 78.2 | 64.9 | 64.6 | 61.7 | 90.4 | – | –
CCN(CC)CCCCNc1ncc2cc(-c3cc(OC)cc(OC)c3)c(NC(=O)NC(C)(C)C)nc2n1 + COc1cc(N2CCC(N3CCN(C)CC3)CC2)ccc1Nc1ncc(Cl)c(Nc2ccccc2S(=O)(=O)C(C)C)n1 [NVP-TAE684] (first compound 0.5 µM, partner dose 0.4 µM) | 98.4 | 83.3 | 81.1 | 68.8 | 60.8 | 67.9 | 52.9 | – | 122 | 70 | 91.9 | 77.2 | 73.8 | 77.4 | 57 | 74.8 | 85.1 | 77.8 | – | –
COc1ccc(-c2ccc3c(N4CCOCC4)nc(N4C[C@@H](C)O[C@@H](C)C4)nc3n2)cc1CO + Cc1cc([N+](=O)[O-])ccc1NS(=O)(=O)c1cc(Cl)ccc1Cl [FH535] (first compound 0.1 µM, partner dose 5 µM) | 58.4 | 157 | 42.8 | 69.7 | 77.4 | 51.3 | 59.9 | 70.9 | 78.7 | 61.6 | 62.7 | 56.1 | 83.4 | 77.9 | 61.7 | 60.4 | 102 | 78.6 | 79.2 | 44.9
COc1ccc(-c2ccc3c(N4CCOCC4)nc(N4C[C@@H](C)O[C@@H](C)C4)nc3n2)cc1CO + O=C(O)C(=O)Nc1sc2c(c1C(=O)O)CCNC2 [TCS401] (first compound 0.1 µM, partner dose 8.33333 µM) | 99.2 | 106 | 76.1 | 59.9 | 105 | 81.2 | 88.2 | 86.1 | 68.4 | 61 | 80.5 | 80.6 | 85 | 82.1 | 71.3 | 77.4 | 67 | 70.6 | 85.5 | 78.2
COc1ccc2c(c1)CCC1C2CCC2(C)C(NCCCCCCN3C(=O)C=CC3=O)CCC12 (stereo not drawn) + COc1cc(N2CCC(N3CCN(C)CC3)CC2)ccc1Nc1ncc(Cl)c(Nc2ccccc2S(=O)(=O)C(C)C)n1 [NVP-TAE684] (first compound 2 µM, partner dose 0.4 µM) | 105 | 84.7 | 82.3 | 47.2 | 33.9 | 91.6 | 73.6 | 75.3 | 121 | 64.9 | 80 | 78.6 | 70.9 | 79.2 | 49.5 | 79.7 | 87.3 | 70.7 | – | –
O=C(O)C(=O)Nc1sc2c(c1C(=O)O)CCNC2 + COc1cc(N2CCC(N3CCN(C)CC3)CC2)ccc1Nc1ncc(Cl)c(Nc2ccccc2S(=O)(=O)C(C)C)n1 [NVP-TAE684] (first compound 8.33333 µM, partner dose 0.4 µM) | 109 | 116 | 93.9 | 82.8 | 68.4 | 118 | 70.8 | – | 120 | 71.9 | 86.8 | 83.3 | 90.9 | 83.1 | 43.1 | 95.5 | 85.3 | 93.4 | – | –
COc1cc2ncnc(Nc3ccc(Oc4ccccc4)cc3)c2cc1OC + CC(C)CCN1c2nc(Nc3cc(F)c(O)c(F)c3)ncc2N(C)C(=O)C1C [BID1870] (first compound 10 µM, partner dose 1 µM) | 83.5 | 83.3 | 64 | 63.2 | 33.7 | 83 | 58.7 | – | 80 | 69.8 | 84.2 | 67.3 | 53 | 54.6 | 54 | 54.7 | 61 | 60.8 | – | –
Cn1cc(/C=C2\C(=O)Nc3cccnc32)c2ccccc21 + O=c1cc(-c2cccc3c2Sc2ccccc2S3)oc(N2CCOCC2)c1 [KU55933] (first compound 2 µM, partner dose 5 µM) | 91.8 | 111 | 78.6 | 99.3 | 85.2 | 116 | 85 | 83.1 | 97.4 | 77.3 | 70.4 | 110 | 88.9 | 104 | 73.8 | 86.2 | 89.1 | 87.4 | 124 | 69.7
N#Cc1c(O)c2c(-c3ccc(-c4ccccc4O)cc3)csc2[nH]c1=O + O=S(=O)(c1ccccc1)N(CC(F)(F)F)c1ccc(C(O)(C(F)(F)F)C(F)(F)F)cc1 [T0901317] (first compound 10 µM, partner dose 7 µM) | 90.5 | 98.4 | 86 | 86.5 | 75.8 | 90.4 | 78.4 | – | 93.1 | 76 | 92.6 | 95.2 | 101 | 95.8 | 74.8 | 72.2 | 93 | 91.9 | – | –
COc1ccc(COc2ccc(Cc3cnc(N)nc3N)cc2OC)cc1 + O=c1cc(-c2cccc3c2Sc2ccccc2S3)oc(N2CCOCC2)c1 [KU55933] (first compound 5 µM, partner dose 5 µM) | 92.9 | 105 | 77 | 84.9 | 67.1 | 73.2 | 90.3 | 82.2 | 79.3 | 92.4 | 80.6 | 71 | 98.7 | 91.2 | 59.6 | 81.3 | 67.4 | 84.3 | 104 | 84.6
CCN(CC)CCCCNc1ncc2cc(-c3cc(OC)cc(OC)c3)c(NC(=O)NC(C)(C)C)nc2n1 + Oc1cc(-c2nc(-c3ccccc3)[nH]c2-c2ccncc2)ccc1Cl [L779450] (first compound 0.5 µM, partner dose 1 µM) | 85 | 81.6 | 75 | 82.6 | 107 | 51.2 | 31.2 | – | 94.3 | 71.5 | 95.6 | 61.3 | 54.3 | 63.5 | 50.6 | 55.2 | 75.6 | 69.5 | – | –
COc1ccc(-c2ccc3c(N4CCOCC4)nc(N4C[C@@H](C)O[C@@H](C)C4)nc3n2)cc1CO + Cn1cc(/C=C2\C(=O)Nc3cccnc32)c2ccccc21 [GW441756] (first compound 0.1 µM, partner dose 2 µM) | 87.3 | 108 | 70.6 | 83.9 | 84.6 | 83.4 | 81.5 | – | 79.9 | 55.1 | 90.8 | 90.5 | 89 | 90.1 | 73.5 | 82.9 | 64.2 | 84.5 | – | –
Oc1nc(-c2ccc(C(F)(F)F)cc2)nc2c1CSCC2 + CCCCCCCCCCCC1=C(O)C(=O)C=C(O)C1=O [Embelin] (first compound 10 µM, partner dose 6 µM) | 78.9 | 81.2 | 81.7 | 88.4 | 65.4 | 75.6 | 77 | 113 | 96.1 | 65.5 | 81.9 | 99.6 | 104 | 73.7 | 64.4 | 94.3 | 98.4 | 102 | 83.9 | 99.9
Oc1cc(-c2nc(-c3ccccc3)[nH]c2-c2ccncc2)ccc1Cl + O=C(O)C(=O)Nc1sc2c(c1C(=O)O)CCNC2 [TCS401] (first compound 1 µM, partner dose 8.33333 µM) | 79.8 | 120 | 85.5 | 90.4 | 87.1 | 75.6 | 42.3 | 37 | 121 | 70.6 | 99.4 | 71 | 52.9 | 76.6 | 53.7 | 55.8 | 82.9 | 46 | 91 | 103
CCCCCCCCCCCC1=C(O)C(=O)C=C(O)C1=O [Embelin] + O=c1cc(-c2cccc3c2Sc2ccccc2S3)oc(N2CCOCC2)c1 [KU55933] (first compound 6 µM, partner dose 5 µM) | 63.7 | 104 | 71.1 | 91.9 | 78.9 | 78.2 | 74 | 77.1 | 109 | 121 | 94.8 | 103 | 86 | 87.3 | 66.4 | 67.2 | 85.1 | 89 | – | –
